For assay [1], the target named is HA-cGAS (full length) (human) (UniProt Q8N884). The assay is described as follows: co-IP; HEK293T cells transfected with HA-cGAS and Flag-TRIM6 or its truncated mutants for 48 h; immunoprecipitation with anti-HA, immunoblot.
The target in assay [2] is HA-TRIM6 (human) (UniProt Q9C030). The assay is described as follows: co-IP; HEK293T cells transfected with HA-TRIM6 and Flag-cGAS, Flag-STING, Flag-TBK1 or Flag-IRF3 for 48 h; immunoprecipitation with anti-HA, immunoblot.
In assay [3] the target is cGAS (cyclic GMP-AMP synthase), endogenous (human (endogenous in MKN28 and SNU668)) (UniProt Q8N884). The assay is described as follows: co-IP; endogenous proteins in MKN28 and SNU668 cells; immunoprecipitation with an anti-cGAS antibody, rabbit IgG as control.

By UniProt entry, the sequences of proteins in these tests, tags left out. Where a name states a change or a piece, a line headed by the entry shows the natural chain unless it says otherwise. Chains listed by the source or under a name are the forms on record and can include a tag or linker.
UniProt Q8N884: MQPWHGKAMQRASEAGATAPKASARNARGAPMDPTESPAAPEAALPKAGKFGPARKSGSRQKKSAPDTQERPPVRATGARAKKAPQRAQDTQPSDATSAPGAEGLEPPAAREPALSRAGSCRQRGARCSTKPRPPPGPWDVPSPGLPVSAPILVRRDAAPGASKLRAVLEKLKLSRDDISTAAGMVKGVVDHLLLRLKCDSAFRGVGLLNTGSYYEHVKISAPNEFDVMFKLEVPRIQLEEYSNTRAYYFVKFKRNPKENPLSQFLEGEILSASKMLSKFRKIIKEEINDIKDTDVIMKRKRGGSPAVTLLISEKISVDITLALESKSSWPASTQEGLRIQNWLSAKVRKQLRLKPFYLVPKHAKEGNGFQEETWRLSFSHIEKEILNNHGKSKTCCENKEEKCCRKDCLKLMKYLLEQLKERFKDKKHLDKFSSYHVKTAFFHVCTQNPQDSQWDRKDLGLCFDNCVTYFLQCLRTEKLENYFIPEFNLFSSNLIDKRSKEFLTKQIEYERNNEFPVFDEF
UniProt Q9C030: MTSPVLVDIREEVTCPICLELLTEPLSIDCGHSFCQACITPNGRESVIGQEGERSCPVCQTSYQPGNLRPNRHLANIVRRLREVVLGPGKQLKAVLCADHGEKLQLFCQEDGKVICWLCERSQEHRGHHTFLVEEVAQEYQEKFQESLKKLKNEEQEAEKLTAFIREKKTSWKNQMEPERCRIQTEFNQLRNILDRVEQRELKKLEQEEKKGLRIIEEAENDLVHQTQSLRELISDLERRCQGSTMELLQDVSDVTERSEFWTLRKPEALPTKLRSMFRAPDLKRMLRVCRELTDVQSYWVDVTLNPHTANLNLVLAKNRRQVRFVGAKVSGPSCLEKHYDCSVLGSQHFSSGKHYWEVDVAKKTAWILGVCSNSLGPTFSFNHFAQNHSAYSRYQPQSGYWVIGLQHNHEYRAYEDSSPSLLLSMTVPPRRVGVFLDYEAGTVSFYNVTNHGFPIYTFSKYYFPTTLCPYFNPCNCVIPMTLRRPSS
HA-TRIM6 (Q9C030-2, form named): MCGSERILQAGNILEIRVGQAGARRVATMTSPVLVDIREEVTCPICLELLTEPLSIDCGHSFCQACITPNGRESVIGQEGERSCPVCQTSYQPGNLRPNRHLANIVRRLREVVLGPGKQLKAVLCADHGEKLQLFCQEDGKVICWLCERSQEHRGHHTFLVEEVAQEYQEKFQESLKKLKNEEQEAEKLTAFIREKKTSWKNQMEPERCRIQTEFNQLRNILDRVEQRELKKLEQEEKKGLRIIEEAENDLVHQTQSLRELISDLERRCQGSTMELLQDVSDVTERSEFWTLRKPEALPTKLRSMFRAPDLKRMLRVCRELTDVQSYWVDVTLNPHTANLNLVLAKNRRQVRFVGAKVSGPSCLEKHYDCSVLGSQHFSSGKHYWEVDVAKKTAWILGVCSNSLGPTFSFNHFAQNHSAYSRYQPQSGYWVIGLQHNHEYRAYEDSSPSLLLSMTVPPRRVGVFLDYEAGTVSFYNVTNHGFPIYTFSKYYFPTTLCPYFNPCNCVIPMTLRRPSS
UniProt Q86WV6: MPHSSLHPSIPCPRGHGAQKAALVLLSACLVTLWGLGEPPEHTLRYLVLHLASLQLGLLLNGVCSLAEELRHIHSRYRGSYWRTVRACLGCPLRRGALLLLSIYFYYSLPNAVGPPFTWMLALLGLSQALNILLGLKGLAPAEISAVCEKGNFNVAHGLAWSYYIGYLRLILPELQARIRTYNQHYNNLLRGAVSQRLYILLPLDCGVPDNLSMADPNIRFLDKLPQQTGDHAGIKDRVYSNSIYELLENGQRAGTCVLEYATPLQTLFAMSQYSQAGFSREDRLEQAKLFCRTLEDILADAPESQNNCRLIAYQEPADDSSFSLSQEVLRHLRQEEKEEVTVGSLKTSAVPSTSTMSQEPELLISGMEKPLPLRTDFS

Results are given in words; binding and its absence hold for the method and conditions named. In cells and extracts the contact can be indirect. Some binding calls cover weakened binding; strength is not graded here. For some assays here: Where a sequence is shown, tags or fusion partners need not be part of it.

As to “Flag-TRIM6 (full length), expressed in HEK293T cells (from UniProt Q9C030-2 1-516) (enzyme)”, the binding result in assay [1] is on record as “binds”.

In the case of Flag-STING (from UniProt Q86WV6 1-379), the binding result in assay [2] is “no binding”.

With “TRIM6, endogenous (from UniProt Q9C030 1-488) (enzyme)”, the binding result in assay [3] is “binds”.

B1: Flag-TBK1 (enzyme, UniProt Q9UHD2 1-729)
chain: MQSTSNHLWLLSDILGQGATANVFRGRHKKTGDLFAIKVFNNISFLRPVDVQMREFEVLKKLNHKNIVKLFAIEEETTTRHKVLIMEFCPCGSLYTVLEEPSNAYGLPESEFLIVLRDVVGGMNHLRENGIVHRDIKPGNIMRVIGEDGQSVYKLTDFGAARELEDDEQFVSLYGTEEYLHPDMYERAVLRKDHQKKYGATVDLWSIGVTFYHAATGSLPFRPFEGPRRNKEVMYKIITGKPSGAISGVQKAENGPIDWSGDMPVSCSLSRGLQVLLTPVLANILEADQEKCWGFDQFFAETSDILHRMVIHVFSLQQMTAHKIYIHSYNTATIFHELVYKQTKIISSNQELIYEGRRLVLEPGRLAQHFPKTTEENPIFVVSREPLNTIGLIYEKISLPKVHPRYDLDGDASMAKAITGVVCYACRIASTLLLYQELMRKGIRWLIELIKDDYNETVHKKTEVVITLDFCIRNIEKTVKVYEKLMKINLEAAELGEISDIHTKLLRLSSSQGTIETSLQDIDSRLSPGGSLADAWAHQEGTHPKDRNVEKLQVLLNCMTEIYYQFKKDKAERRLAYNEEQIHKFDKQKLYYHATKAMTHFTDECVKKYEAFLNKSEEWIRKMLHLRKQLLSLTNQCFDIEEEVSKYQEYTNELQETLPQKMFTASSGIKHTMTPIYPSSNTLVEMTLGMKKLKEEMEGVVKELAENNHILERFGSLTMDGGLRNVDCL
Regarding B1, the binding entry in assay [2] is reported as “no binding”.

B2: Flag-IRF3 (protein, UniProt Q14653 1-427)
chain: MGTPKPRILPWLVSQLDLGQLEGVAWVNKSRTRFRIPWKHGLRQDAQQEDFGIFQAWAEATGAYVPGRDKPDLPTWKRNFRSALNRKEGLRLAEDRSKDPHDPHKIYEFVNSGVGDFSQPDTSPDTNGGGSTSDTQEDILDELLGNMVLAPLPDPGPPSLAVAPEPCPQPLRSPSLDNPTPFPNLGPSENPLKRLLVPGEEWEFEVTAFYRGRQVFQQTISCPEGLRLVGSEVGDRTLPGWPVTLPDPGMSLTDRGVMSYVRHVLSCLGGGLALWRAGQWLWAQRLGHCHTYWAVSEELLPNSGHGPDGEVPKDKEGGVFDLGPFIVDLITFTEGSGRSPRYALWFCVGESWPQDQPWTKRLVMVKVVPTCLRALVEMARVGGASSLENTVDLHISNSHPLSLTSDQYKAYLQDLVEGMDFQGPGES
For B2, in assay [2], the binding result was “no binding”.

The values are drawn from publication PMC12355757, “TRIM6 ablation reverses ICB resistance in MSS gastric cancer by unleashing cGAS-STING-dependent antitumor immunity” (Journal of Experimental & Clinical Cancer Research : CR, 2025).
